The text below walks through data of the RNAGym collection of RNA variant scans (doi:10.1073/pnas.2313332121).

B1: TPR 5TU (parent)
chain: GGAUCUUCUCGAUCUAACAAAAAAGACAAAUCUGCCACAAAGCUUGAGAGCAUCUUCGGAUGCAGAGGCGGCAGCCUUCGGUGGCGCGAUAGCGCCAACGUUCUCAACUAUGACACGCAAAACGCGUGCUCCGUUGAAUGGAGUUUAUCAUG

Variants at the background level are over-represented here.

Variants of B1 are the subject of the data set. As to the kind of experiment: polymerase ribozyme fitness, log enrichment relative to wild type (log ratio); higher = more active; in vitro selection for triplet polymerase activity. In a few lines:
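Genotype fitness is the logarithm of its enrichment divided by wild-type enrichment, using inverse-variance-weighted averages of replicates. That logarithm is base 2. Enrichment was measured by Illumina sequencing of input and output libraries from one triplicate in vitro selection round, with frozen incubation at −7 °C, on PCR-built, transcribed mutant libraries of each subunit of a heterodimeric triplet polymerase ribozyme, retaining genotypes with ≥10 input reads and ≥1 read per output.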
Regarding GGAUCUUCUCGAUUUAACAAUAAAGACAUAUCUGUCACAAGGCUUGAGAGCAUCUUCGGAUGCAGAGGCGGCAGCUUUCGGUGGCGCGAUAGCGCUAACGUUCUCAACUAUGACACGCAAAACGCGUGCUCCGUUGAAUGGAGUUUAUUAUG, the “polymerase ribozyme fitness (log ratio)” value was ≤ -4.2.

For the variant GGAUCUUCUCGAUGUAACAAAAAAGACAAAUCUGCCACAAAGCUUGAGAGCAUCGUCGGAUGCAUAGGCGGCAGCCUUCGGUGUUACGAUAGCGCCAACGUUCUCAACUAUGACACGCAAUACGCGUGCUCCGUUGAAUGGAGUUUAUCAUG, the “polymerase ribozyme fitness (log ratio)” value was ≤ -4.2.

With GGAUCUUCUCGAUUUAACAAAAAAGACAGAUCUGCCAGAAAGCUUGAGAGCAUCUUCGGAUGCAGAGGCGGCAGCCUUCGGUGGCGAGAUAGCACCAACGUUCUCGACUAUGACACGCAAAACGCGUGCUCCGUUGAAUGGAGUUUAUCAUG, the “polymerase ribozyme fitness (log ratio)” value is ≤ -4.2.

On to GGAUCUUCUCGAUGUAACAAAAAAGACAAAUCUGCCACAAAGCUAGAGAGCAUCUUCGGAUGCAGAGGCGGCAGCCUUCGGUGGCUCGGUAGCGCCAACGUUCUCAACUAUGACACGCAAAACGCGUGCUCCGUUGAAUGGAGUUUAUCAUG, for which the “polymerase ribozyme fitness (log ratio)” value is ≤ -4.2.

Regarding GGAUCUUCUCGAUUUAACCAAAAAGACAAAUCUGCCACAAUGCUUGAGAGCAUCUUCGGAUGGAGAGGCGGCAGCCUUCGGUGGCGCGAUAGGGCCAACGUUAUCAACUAUGACACGCAAAACGCGUGCUCCGUUGAAUGGAGUUUAUCAUG, the “polymerase ribozyme fitness (log ratio)” value is ≤ -4.2.

As for GGAUCUUCUCGAUUUAACAAUAAUGACAAAUCUGCCACAAAGCAUGAGAGCAUCUUUGGAUGCAGAGGCGGCAGCCUUCGGUGGCGCGAUAGGGCCAACGUUCUCAACUAUGCCACGCAAAACGCGUGCUCCGUGAAAUGGAGUUUAUCAUG, the “polymerase ribozyme fitness (log ratio)” value is ≤ -4.2.

As for GGAUCUUCUCGAUGUAACAAAAAAGACAAAUCUGCCACAAAGCUUGAGAGCAUCAUCGGACGCAGAGGCGGCAGCCUUCGGUGGCGCGAUAGCUCCAACGUUCUCAACUAUGACACGCAAAACGCGUGCUCCGUUGAAUGGAGUUUAUCAUG, the “polymerase ribozyme fitness (log ratio)” value is ≤ -4.2.

GGAUCUUCUCGAUUUAACAAAAAAGACUAAUCUGCCCCAAAGCUUGAGAGCAUCUUCGGAUGCAGAGGCGGCAGCCUUCGGUGGCGCGAUAGCGCAAACGUUCUCAACUAUGACACGCGAAACGCGUGCUCCGUUGAAUGGAGUUUAUCAUG: the “polymerase ribozyme fitness (log ratio)” value was ≤ -4.2.

For GGAUCUUCUCGAUUUAACAAAAAAGACUAAUCUGCCACAAAGCUUGAGAGCAUCUUCGGAUGCAGAGGCGGCAGCCUUCGGUGGCGCGAUAGCGCGAACGUUCUCAACUAUGACACGCAAAACGCGUGCUCCGUUGAAUGGAGUUUAUCAUG, the “polymerase ribozyme fitness (log ratio)” value was ≤ -4.2.

As to GGAUCUUCUCGAUGUAACAAAAAAGACAAAUCUGCCACAAAGCUUGAGAGCAACUUCGGAUGCAGAGGCGGCAGCCUUCGGUGGGGCGAAUGCGCCAAAGUUCUCAACUAUGACACGAAUAACGCGUGCUCCGUUGAAUGGAGUUUAUCAUG, the “polymerase ribozyme fitness (log ratio)” value was ≤ -4.2.

Take GGAUCUUCUCGAUUUAACAAAAUAGACAAAUCUGCCACAAAGCUUGUGAGCAUCUUCGGAUGCAGAGGCGGCAGCCUUCGGUGGUGCGAUAGCGCCAACGGUCUCAACGAUGACACGCAAAACGCGUGCUCCGUUGAAUGGAGUUUAGCAUG: the “polymerase ribozyme fitness (log ratio)” value was ≤ -4.2.

As for GGAUCUUCUCGAUUUAACACAAAAGACAAAUCUGCCACAAAGCUUGAGAGGAUCUUCGGAUGCAGAGGCCGCAGCCUUCGGUGGCGCGAUUGCGCCAACAUUCUCAACUAUGACACGCAAAACGCGUGCUCCGUUGAAUCGAGUUUAUCAUG, the “polymerase ribozyme fitness (log ratio)” value is ≤ -4.2.

As to GGAUCUUCUCGAUGUAACAAAAAAGACAAAUCUGCCACAAAGCUUGAGAGCACCUUCGGAUGCAGAGGCGGCAGUCUUCGGUGGCGCGAUAGCUCCAACGUUCUCAACUAUGACACGCAAAACGCGUGCUCCGUUGAAUGGAAUUUAUCAUG, the “polymerase ribozyme fitness (log ratio)” value is ≤ -4.2.

As to GGAUCUUCUCGAUGUAACAAAAAAGACAAAUCUGCCACAAAGCUUGAGAGCAUCUUCGGACGCAGAGGCGGCAUCCUUCGGUGGCGCGAUCGCGUCAACGUUCUCAACUAUGACACGUAAAACGCGUGCUCCGUUGAAUAGGGUUUAUCAUG, the “polymerase ribozyme fitness (log ratio)” value was ≤ -4.2.

Turning to GGAUCUUCUCGAUUUAACAACAAAGACAAAUCUGCCACAAAGCUUGAGAGCAUCUUCGGAUGCAGAGGCGGUAGCCUUCGGUGGCGCGAUAGCGCUAACGUUCUGAACUAUGACAUGCAAAACGCGUGCUCCGUUGAAUGGACUUUAUCAUG, the “polymerase ribozyme fitness (log ratio)” value was ≤ -4.2.

Turning to GGAUCUUCUCGAUUUAGCAAAAAAGACUAAUCUGCCACAAAGCUUGAGAGCAUCUUCGGAUGCAGAGGCGGCAGCCUUCGGUCGCGCGAUAGCGCCAACGUUCUCAACUAUGACACGCAAAACGCGUGCUCCGUUGAAUGGAGUUUAUCAUG, the “polymerase ribozyme fitness (log ratio)” value was ≤ -4.2.

Consider GGAUCUUCUCGAUUUAACCAAAAAGACAAAUCUGCCACAACGCUUGAGAGCAACUUCGGAUGCAGAGUCGGCAGCCUUCGGUGGCGCCAUAGCGCCAAGGUUCUCAACUAUGACACGCAAAACGCCUGCUCCGUUGAAUGGAGUUUAUCAUG, for which the “polymerase ribozyme fitness (log ratio)” value is ≤ -4.2.

Turning to GGAUCUUCUCGAUGUAACAAAAAAGACAAAUCUGCCACAAAGCUUGAGAGCAGCUUCGGAUGCAGAGGUGGCAGCCUUCGGUGGCGCGAUAGCGCCAACGUUCUCAACUAUGACACGCAAAACGCGUGCUCCGUUGAAUGGAGUUUAUCAUG, the “polymerase ribozyme fitness (log ratio)” value is ≤ -4.2.

On to GGAUCUUCUCGAUUUCACAAAAAAGACAAAUCUGCCACAAAGCUUGAGAGCAUCUUGGGAUGCAGAGGCGGCAGCCUUCGGUUGUGCGAUAGCGCCAACGUUCUCAGCUAUGACACGCAAAACGCGUGCUCCGUUGAAUCGCGUUUAUCAUG, for which the “polymerase ribozyme fitness (log ratio)” value is ≤ -4.2.

Turning to GGAUCUUCUCGAUUUAUCAAAAAAGACAAAUCUGCCACAAAGCUUGAGAGCAUCUUCGGAUGCAGAGGCGGCAGCCUUCGGUGGCGCGAUAGGGCCAACGUUCUCAACUAUGACACGCAAAACGCGUGCUCCGUUGAAUGGAGUUUAUCAUG, the “polymerase ribozyme fitness (log ratio)” value is ≤ -4.2.

Turning to GGAUCUUCUCGAUUUAACUAAAAAGACAAAUCUGCCACAAAGCUUGAGAGCAUCUUCGGAUGCAGAGGCGGCAGCCUUCGGUGGCGUGAUAGCGCCAAAGUUCUCAACUAUGACACGCAAAACGCGUGCUCCGUUGAAUGGAGUUUAUCAUG, the “polymerase ribozyme fitness (log ratio)” value is -3.91.

As for GGAUCUUCUCGAUUUAACAAAUAAGACAAAUCUGCCACAAAGCUUGAGAGCAUCUUCGGCUGCAGAGGCGGCAGCCUUCGUUGGCGCGAUAGCGGUAACGUUCUCAACUAUGACACGCAAAACGCGUCCUCCGUUGAAUGGAGUUUAUCAUG, the “polymerase ribozyme fitness (log ratio)” value is ≤ -4.2.

In the case of GGAUCUUCUCGAUGUAACAAAAAAGACAAAUCUGCCACAAAGCUCGAGAGCAUCUUCGGAUGCAGAGGCGGCAGCCUUCGGUGGCGCAAUAGCGCCAACGUUCUCAACUAUGACACGCAAAACGCGUGCUCCGUUGAAUGGAGUUUAUCAUG, the “polymerase ribozyme fitness (log ratio)” value was ≤ -4.2.

Regarding GGAUCUUCUCGAUUUAACAAGAAAGACAAAUCUGCCACAAAGCUUGAGGGCAUCUUCGGAUGCAGAGGCGGCAGCCUUCGGUGGCGCGAUAGCGCCAACGUUCUCAACUAUGACACGCAAAACGCGUGCUCCGUUGAAUGGAGUUUAUCAUG, the “polymerase ribozyme fitness (log ratio)” value was -2.56.

As to GGAUCUUCUCGAUUUAACAUAAAAGACAAAUCUGCCACAAAGCUUGAGAGCAUCUUCGGAUGCAAAGGCAGCAGCCUUCGGUGGCGCGAUAGCGCCAACGUUCUCAACUAUGACACGCAAAACGCGUGCUCCGUUGAAUGGAGUCUAUCAUG, the “polymerase ribozyme fitness (log ratio)” value was ≤ -4.2.

In the case of GGAUCUUCUCGAUGUAACAAAAAAGACAAAUCUGCCACAAAGCUUGAGAGCAUCCUCGGAUGCAGAGGCGGCAGCCUUCGGUGGCGCGAUAGGGCAAACGUUCGCAACUAUGACACGCAAAACGCGUGCUCCGUUGAAUGGAGUUUAUCAUG, the “polymerase ribozyme fitness (log ratio)” value is ≤ -4.2.

For the variant GGAUCUUCUCGAUUUAACAAAAACGACAAAUCUGCCAUAAAGCUUGAGAGCAUCUUCGGAUGCAGAGGCGGCAGCCUUCGGUGGCGCGAUAGCGCCAACGUUCUCAACUAUGACACGCAAAACGCGUGCUCCGUUGAAUGGAGUUUAUCAUG, the “polymerase ribozyme fitness (log ratio)” value was ≤ -4.2.

As for GGAUCUUCUCGAUGUAACAAAAAAGACAAAUCUGCCACAAAGCUUGAGAGCAUCUACGGAUCCAGAGGCGGCAGCCUUCGGUGGCGCGAUAGCGCCAACGUUCUCAACUAUGACACGCAAAACGCGUGCUCCGUUGAAUGGAGUUUAUCAUG, the “polymerase ribozyme fitness (log ratio)” value is ≤ -4.2.

GGAUCUUCUCGAUUUCACAAAAAAGACAAAUCUGCCACAAAGCUUGAGAGCAUCUUCGGAUGCAGAGGCGGCAGCCUUCGGUGGUGGGAUAGCGCCAACGUUCUCAACUAGGACACGCAAAACGCGUGCUCCGUUGAAUGGAGUUUAUCAUG: the “polymerase ribozyme fitness (log ratio)” value is ≤ -4.2.

On to GGAUCUUCUCGAUGUAACAAAAAAGACAAAUCUGCCACAAAGCUUGAGAGCAUCUACGGAUGCAGAGGCGGCAGCCUUCGGUGGGGCGAUAACGCCAACGUUCUCAACUAUGACACGCAAAACGCGUGCUCCGUUGAAUGGAGUUUAUCAUG, for which the “polymerase ribozyme fitness (log ratio)” value is ≤ -4.2.

Regarding GGAUCUUCUCGAUUUAACUAAAAAGACAAAUCUGCCACAAAGCUUGAGAGCAUCAUCGGAUGCAGAGGCGGCAGCCUUCGGUGGCGCGAUAGCGCCAACGUUCUCAACUAUGACACGCAAAACGCGUGCUCCGUUGAAUGGAGUUUAUCAUG, the “polymerase ribozyme fitness (log ratio)” value is -1.9.

Consider GGAUCUUCUCGAUUUAACAAAGAAGACAAAUUUGCCACAAAGCUUGAGAGCAUUUUCGGAUGCAGAGGCGGCAGCCUUCGGGGUCGCGAUAGCGCCAAAGUUCUCAACUAUGACACGCAAAACGCGUGCUCCGUUGAAUGGAGUUUAUCAUG, for which the “polymerase ribozyme fitness (log ratio)” value is ≤ -4.2.

Consider GGAUCUUCUCGAUUUAACCAAAAAGACAAAUCUGCUACAAAGCUUGAGAGCAUCUUCGGAUGCAGAGGCGGCAGUCUUCGGUGGCGCGAAAGCGCCAACGUUCUCAACUAUGACACGCAAAACGCGUGCUCCGGUGAAUGGAGUUUAUCAUG, for which the “polymerase ribozyme fitness (log ratio)” value is ≤ -4.2.

For GGAUCUUCUCGAUUUAACAAAAAAGACAUAUCUGCCACAAAGCUUGAGAGCAUGUUCGGAUGCAGAGGCGGCAGCCUUCGGUUUCGCGAUAGCGCCAACGUUCUGAACUAUGACACGCAAAACGCGUGCUCCGUUGAAUGGAGUUUAUCAGG, the “polymerase ribozyme fitness (log ratio)” value was ≤ -4.2.

Take GGAUCUUCUCGAUUUCACAAAAAAGUCAAAUCUGCCACAAAGCUUGAGAGCAUCUUCGGAUGCAUAGGCGGCAGCCUUCGGUGGCGCGAUACCGCCAACGUUCUCAACUAUGACACGCAAAACGCGUGCUCCGUUGAAUGGAGUUUAUCAUG: the “polymerase ribozyme fitness (log ratio)” value was ≤ -4.2.

GGAUCUUCUCGAUUUAACAAAAAUGACAAAUCUGACACAAAGCUUGAGAGCAUCUUCGGAUGCAGAGGCGGCGGCCUUCGGUGGCGCGAUUGCGCCUACGUUCUCAACUAUGACACGCAAAACGCGUGCUCCGUUCAAUGGAAUUUAUCAUG: the “polymerase ribozyme fitness (log ratio)” value was ≤ -4.2.

Regarding GGAUCUUCUCGAUUUAACAUAAAAGACAAAUCUGCGACAAAGCUUGAGAGCAUCUUCGGAUGCAGAGGCGGCAGCCUUCGGUGGCGCAAUAACGCCAACGUUCUCAACUAUGACACGCAAAACGCGUGCUCCGUUGAAUGGAGUUUACCAUG, the “polymerase ribozyme fitness (log ratio)” value is ≤ -4.2.

Consider GGAUCUUCUCGAUUUUACAAAAAAGACAAAUCUGCAACAAAGCUUGAGAGCAUCUUCGGAUGCAGAGGCGGCAGCCUUCGGAGGAGCGAUAGCGCCAACGUUAUCAACUAUGACACGCAAAACGCGUGCUCCGGUAAAUGGAGUUUAUCAUG, for which the “polymerase ribozyme fitness (log ratio)” value is ≤ -4.2.
